The results in this text go back to PubChem BioAssay AID485344 (National Center for Advancing Translational Sciences (NCATS), 2010).

About 6,900 (2%) of roughly 340,000 compounds were called active. Cut-off read from the data, not from the text of the source: active = inhibition above about 30%; inactive = below that, where a call was filed. This is a selection; strong and weak results do not stand in their true shares. Where no call is shown, the source filed none.

UniProt P14416, sequence (P14416 whole entry, looked up): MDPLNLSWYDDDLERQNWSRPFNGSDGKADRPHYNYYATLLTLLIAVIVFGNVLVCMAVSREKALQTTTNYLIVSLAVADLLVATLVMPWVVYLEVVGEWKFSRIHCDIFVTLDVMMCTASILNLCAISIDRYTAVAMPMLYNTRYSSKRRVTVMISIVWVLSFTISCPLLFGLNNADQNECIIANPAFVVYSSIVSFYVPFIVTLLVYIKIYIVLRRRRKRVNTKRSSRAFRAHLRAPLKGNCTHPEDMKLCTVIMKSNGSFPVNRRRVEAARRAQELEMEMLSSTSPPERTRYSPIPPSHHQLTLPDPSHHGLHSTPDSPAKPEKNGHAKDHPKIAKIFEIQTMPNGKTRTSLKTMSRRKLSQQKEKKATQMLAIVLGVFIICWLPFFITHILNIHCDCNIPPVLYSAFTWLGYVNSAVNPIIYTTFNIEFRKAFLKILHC

This assay addresses D(2) dopamine receptor (Homo sapiens) (UniProt P14416). The assay is described as follows: HTS Assay for Allosteric Antagonists of the Human D2 Dopamine Receptor: Primary Screen for Antagonists. Note: 0% is about no effect. As to conditions: HEK293 TREx D2 cells, calcium flux, dopamine EC80; at 10 µM; stronger effect = higher value. An outline of the steps:
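Tetracycline-induced HEK293 T-REx cells expressing D2 force-coupled to calcium signalling were dye-loaded, exposed to compound for 180 s, then challenged with an EC80 of dopamine; calcium flux was followed kinetically for a further 180 s.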
For orientation: Calcium assays in cells follow changes in intracellular calcium, usually with a dye or a luminescent sensor.
Regarding `Fc1ccc(Nc2nc(SCc3ccccc3F)nc3ccccc23)cc1`, the inhibition (as a rule, the change of the read-out against control, counted positive when it falls) worked out at 12%. Take `CCOC(=O)c1cc2c(=O)n3ccccc3nc2n(Cc2ccco2)c1=NC(=O)c1cccc(F)c1`: the inhibition was -15.1%. For the compound `COc1cc(NC(=O)CCCc2nnc3n(CC(C)C)c(=O)c4sccc4n23)cc(OC)c1`, the inhibition worked out at 10.8%. `O=C(NCC(c1ccco1)N1CCN(c2ccccc2F)CC1)c1ccco1` (stereo not given): the inhibition was active: 53.7%.

Take `Cc1cc([N+](=O)[O-])ccc1NC(c1nnc(-c2ccccc2)o1)c1ccccc1F` (stereo not given): the inhibition was 1.58%. As to `CC(=O)N1CCc2cc(Br)cc(S(=O)(=O)CCC(=O)N3CCN(c4ccccc4)CC3)c21`, the inhibition was -0.622%.

In the case of `Cc1cccc(N2CCN(C(=O)CN3C(=O)COc4ccc(S(=O)(=O)N5CCOCC5)cc43)CC2)c1C`, the inhibition was -6.29%. With `CCC1CCCCN1C(=O)CSc1nc(-c2ccc(OC)c(OC)c2)cc(C(F)(F)F)n1` (stereo not given), the inhibition stood at 4.96%.

`CC1=C(C(=O)OC2CCCCCC2)C(c2cccc(F)c2F)CC(=O)N1` (stereo not given): the inhibition was 17.3%.

Consider `O=C1/C(=C\c2ccco2)SC(=S)N1c1ccccc1`, for which the inhibition was active: 47.5%. Take `CCc1ccc(S(=O)(=O)Nc2ccc3[nH]c(=O)sc3c2)cc1`: the inhibition was -0.163%. With `Cc1cccc(NC(=O)c2sc3nc4c(cc3c2N)CN(C(C)C)CC4)c1` the figure was 13.7%; with `COCCCNC(=O)CSc1nc2cc3c(cc2c(=O)n1CCCCCC(=O)NCc1ccc2c(c1)OCO2)OCO3`, -4.96%; with `CCCCNC(=O)C1CCC(CNS(=O)(=O)c2ccc(C)cc2)CC1` (stereo not given), 11%. Consider `Cc1nc(NC(=O)c2c(-c3ccccc3)c(-c3ccccc3)nn(C)c2=O)sc1C`, for which the inhibition is 11.5%. Consider `Cc1ccc(NC(=O)Cn2c(=O)n(CCCCC(=O)NCCc3ccc(Cl)cc3)c(=O)c3ccccc32)cc1`, for which the inhibition is -0.157%. As to `COc1ccc(CNC(=O)CN2C(=O)COc3ccc(S(=O)(=O)N4CCC(C)CC4)cc32)cc1`, the inhibition is -0.714%. As to `O=C(NCCN1CCN(c2ccccc2)CC1)c1cccc(Br)c1`, the inhibition is active: 78%.

As for `COc1ccc(CCNC(=O)c2oc(=O)c3ccccc3c2-c2ccccc2)cc1OC`, the inhibition was 4.74%. For `COc1cc(NC(=O)CCS(=O)(=O)c2nc(-c3ccc4c(c3)OCO4)cc(C(F)(F)F)n2)cc(OC)c1OC` the value was 9.99%; for `COCCCN1C(=O)c2[nH]nc(-c3ccccc3O)c2C1c1ccc(OCc2ccccc2)cc1` (stereo not given), 16.9%; for `CCc1c(C)sc2c1CCN(C(=O)Nc1cc(C)cc(C)c1)C2c1ccccc1` (stereo not given), -4.73%. Consider `COc1ccccc1NC(=O)C1CCN(S(=O)(=O)c2ccc3[nH]c4c(c3c2)CCCCC4)CC1`, for which the inhibition amounted to 5.26%. Turning to `CCN1CCN(C(c2ccc(SC)cc2)c2c(O)cc(C)n(Cc3ccco3)c2=O)CC1` (stereo not given), the inhibition is -2.5%. Regarding `Cc1cc(C)c(NC(=O)CCn2c(=O)c3cccn3c3ccccc32)c(C)c1`, the inhibition is -4.38%.
